Results as given in the RNAGym collection of RNA variant scans (doi:10.1101/gad.245936.114).
Variants at the floor of the assay are shown more often than the library holds them.

B1: tRNA (parent)
chain: CUCUCGGUAGCCAAGUUGGUUUAAGGCGCAAGACUUUAAUUUAUCACUACGAAAUCUUGAGAUCGGGCGUUCGACUCGCCCCCGGGAGAUUUUUUCCUCGAGCAA

Variants of: B1
Assay: nonsense suppression (GFP-seq) (ratio to wild type); higher = more function; SUP4oc tRNA, yeast GFP reporter sort-seq
In short: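 Yeast carrying genome-integrated SUP4oc tRNA variants from a library with ~3% random mutations were grown in raffinose/galactose medium with 80 mg/L adenine. Each strain also carried a galactose-driven GFP ochre reporter and RFP. Cells were sorted into GFP/RFP bins, and each bin was Illumina-sequenced (phred ≥30). Nonsense suppression (GFPSEQ) is the bin median GFP/RFP, weighted by each variant's estimated cell share per bin, relative to wild-type SUP4oc; variants needed ≥100 reads and ≥30 cells.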

C1U U21A G28U C29A and C1G C80G cannot be ordered by nonsense suppression: ≤ 0.026 for the first, ≤ 0.026 for the second.

C1G G6U and C1U U20G cannot be ordered by nonsense suppression: ≤ 0.026 for the first, ≤ 0.026 for the second.

C1U U20A and C1U G15U U17G U35C U57C A87G cannot be ordered by nonsense suppression: ≤ 0.026 for the first, ≤ 0.026 for the second.

C1U A13U and C1U A13G cannot be ordered by nonsense suppression: ≤ 0.026 for the first, ≤ 0.026 for the second.

C1U C29A G84C and C1U C29U cannot be ordered by nonsense suppression: ≤ 0.026 for the first, ≤ 0.026 for the second.

C1U C29A and C1G G18C A23G A31U cannot be ordered by nonsense suppression: ≤ 0.026 for the first, ≤ 0.026 for the second.

C1U C3A A89G and C1G G6U A31C G73C C79U cannot be ordered by nonsense suppression: ≤ 0.026 for the first, ≤ 0.026 for the second.

C1U A30C C83U and C1U G86A cannot be ordered by nonsense suppression: ≤ 0.026 for the first, ≤ 0.026 for the second.

C1U G15A C29U and C1U G19U cannot be ordered by nonsense suppression: ≤ 0.026 for the first, ≤ 0.026 for the second.

U2A A31U A33G U58A and C1U G6A cannot be ordered by nonsense suppression: ≤ 0.026 for the first, ≤ 0.026 for the second.

C1U U4C C77G C80U G85A and C1U A13C C82A cannot be ordered by nonsense suppression: ≤ 0.026 for the first, ≤ 0.026 for the second.

First: C1U U4A
Second: C1U U20G A33C U58A C81G
The nonsense suppression of the first is higher: 0.0473 for the first, ≤ 0.026 for the second.

C1G U4C A13C U17A U22G and C1U U21G G66A cannot be ordered by nonsense suppression: ≤ 0.026 for the first, ≤ 0.026 for the second.

C1U C3G U4G U21G G66A C77U and C1G U4C C5U U63G G78A cannot be ordered by nonsense suppression: ≤ 0.026 for the first, ≤ 0.026 for the second.

C1U A33G U57C A62G and C1U U16G G59A G84C cannot be ordered by nonsense suppression: ≤ 0.026 for the first, ≤ 0.026 for the second.

C1U A31G and C1G C83A cannot be ordered by nonsense suppression: ≤ 0.026 for the first, ≤ 0.026 for the second.

C1U A30C G86A and C1G G25A G65A C83G cannot be ordered by nonsense suppression: ≤ 0.026 for the first, ≤ 0.026 for the second.

C1G U2G G85A G86C and C1G G32A cannot be ordered by nonsense suppression: ≤ 0.026 for the first, ≤ 0.026 for the second.

C1G G32U and C1U C11U A33G G61A G67A G73U cannot be ordered by nonsense suppression: ≤ 0.026 for the first, ≤ 0.026 for the second.

C1U G59C C81A and C1G U2C U22C C72G G78A cannot be ordered by nonsense suppression: ≤ 0.026 for the first, ≤ 0.026 for the second.

C1G G78C and C1U U17A U58G G73A G84C cannot be ordered by nonsense suppression: ≤ 0.026 for the first, ≤ 0.026 for the second.

C1U G67U U76C and C1G G78A C81G A89C cannot be ordered by nonsense suppression: ≤ 0.026 for the first, ≤ 0.026 for the second.

C1U C68U and U2A A14C G18U cannot be ordered by nonsense suppression: ≤ 0.026 for the first, ≤ 0.026 for the second.

C1U A14C and C1U A54G C56G cannot be ordered by nonsense suppression: ≤ 0.026 for the first, ≤ 0.026 for the second.

Going from U2A A30G to C1U G78A, the nonsense suppression rises from ≤ 0.026 to 0.0525.

C1G C56A U58G and C1U G61U G78C cannot be ordered by nonsense suppression: ≤ 0.026 for the first, ≤ 0.026 for the second.

C1G U21A U70C U71A and C1U A54C cannot be ordered by nonsense suppression: ≤ 0.026 for the first, ≤ 0.026 for the second.

C1G G6C G19C and U2A A24U C27A G61C G66A cannot be ordered by nonsense suppression: ≤ 0.026 for the first, ≤ 0.026 for the second.

C1U G10U C11A G15A and C1G C29U G66C G85C cannot be ordered by nonsense suppression: ≤ 0.026 for the first, ≤ 0.026 for the second.

U2A C11U C12U and C1U G19U U20G U76A G86U cannot be ordered by nonsense suppression: ≤ 0.026 for the first, ≤ 0.026 for the second.

C1U G10U A62G G88C and C1G U58C G59A cannot be ordered by nonsense suppression: ≤ 0.026 for the first, ≤ 0.026 for the second.

C1U C3U G7U U76G G84C and C1G C11G C64U cannot be ordered by nonsense suppression: ≤ 0.026 for the first, ≤ 0.026 for the second.

U2A A31C C79G and C1U A23U G28U G61A cannot be ordered by nonsense suppression: ≤ 0.026 for the first, ≤ 0.026 for the second.

C1U A24C A87G and C1G G7C A54G cannot be ordered by nonsense suppression: ≤ 0.026 for the first, ≤ 0.026 for the second.

C1U C3U C64G G69U and C1U A13G A24G C83G cannot be ordered by nonsense suppression: ≤ 0.026 for the first, ≤ 0.026 for the second.

C1U A13G A24G C83U and C1U A13C C29G U63A A74U U76A G78C C79U cannot be ordered by nonsense suppression: ≤ 0.026 for the first, ≤ 0.026 for the second.

U2A C11A A24U G78A and C1G C5U A24G A54G G59U cannot be ordered by nonsense suppression: ≤ 0.026 for the first, ≤ 0.026 for the second.

C1G G7A G25A A31U U63C C80A and C1G U4C U20G U57C U58A C64U cannot be ordered by nonsense suppression: ≤ 0.026 for the first, ≤ 0.026 for the second.

C1U U2G G32C G61A G78C C82U and C1G G18C C68U G88U cannot be ordered by nonsense suppression: ≤ 0.026 for the first, ≤ 0.026 for the second.

C1G C12G A13G U17A U57C and U2A A9U A54C C56U G61A cannot be ordered by nonsense suppression: ≤ 0.026 for the first, ≤ 0.026 for the second.

C1U C12U C27G and C1U A24C A54U U70A G86A cannot be ordered by nonsense suppression: ≤ 0.026 for the first, ≤ 0.026 for the second.

C1G G28C and C1U C3G U4A G10C G19U C68G G84U cannot be ordered by nonsense suppression: ≤ 0.026 for the first, ≤ 0.026 for the second.

C1U G32U and C1G C11U G69U cannot be ordered by nonsense suppression: ≤ 0.026 for the first, ≤ 0.026 for the second.

C1U G25C C29U U57A A62C and U2A A89C cannot be ordered by nonsense suppression: ≤ 0.026 for the first, ≤ 0.026 for the second.

U2A A13C C64U G66A and C1U G67C cannot be ordered by nonsense suppression: ≤ 0.026 for the first, ≤ 0.026 for the second.

C1U G67A and C1U G7C G19U U76A cannot be ordered by nonsense suppression: ≤ 0.026 for the first, ≤ 0.026 for the second.

C1G G10U A54G C68A and C1U U55G C83U cannot be ordered by nonsense suppression: ≤ 0.026 for the first, ≤ 0.026 for the second.

C1G U4C A13U C72U and C1G G32C C72G G73C A87U cannot be ordered by nonsense suppression: ≤ 0.026 for the first, ≤ 0.026 for the second.

C1U C27G G65A and C1G C12U cannot be ordered by nonsense suppression: ≤ 0.026 for the first, ≤ 0.026 for the second.

C1G U16A G19U and C1U C3A cannot be ordered by nonsense suppression: ≤ 0.026 for the first, ≤ 0.026 for the second.

C1U C56U U57A and C1G C5G cannot be ordered by nonsense suppression: ≤ 0.026 for the first, ≤ 0.026 for the second.

U2A C27A U76C and U2A C27A U76G cannot be ordered by nonsense suppression: ≤ 0.026 for the first, ≤ 0.026 for the second.

C1U A14G G19U C29U A62G U76A and C1G G69A cannot be ordered by nonsense suppression: ≤ 0.026 for the first, ≤ 0.026 for the second.

U2A A13U C75G G85C and C1G C64U C79G cannot be ordered by nonsense suppression: ≤ 0.026 for the first, ≤ 0.026 for the second.

C1G C29A U55C C68A and C1U A23U C29G U58A G73C cannot be ordered by nonsense suppression: ≤ 0.026 for the first, ≤ 0.026 for the second.

U2A C27U C29U G88A and C1G G10C A30G G32U C80A cannot be ordered by nonsense suppression: ≤ 0.026 for the first, ≤ 0.026 for the second.

C1U U2A G26A A54U C79A C82G and U2A A9C G66A cannot be ordered by nonsense suppression: ≤ 0.026 for the first, ≤ 0.026 for the second.

C1G G6C G25C G32U A62G U76C C80A and C1G C12U G15U A30C A31C cannot be ordered by nonsense suppression: ≤ 0.026 for the first, ≤ 0.026 for the second.

C1U C3A G7U G25A and U2A A13C cannot be ordered by nonsense suppression: ≤ 0.026 for the first, ≤ 0.026 for the second.

U2A A33C G69U C79G G86A and C1U A9U G15C U16G cannot be ordered by nonsense suppression: ≤ 0.026 for the first, ≤ 0.026 for the second.

C1U A23G and C1U A23C cannot be ordered by nonsense suppression: ≤ 0.026 for the first, ≤ 0.026 for the second.

U2A A13C G61A and C1G U57C G69A G78C cannot be ordered by nonsense suppression: ≤ 0.026 for the first, ≤ 0.026 for the second.

C1U A14G U22C C27G A30U and C1G G7A U17C C83A cannot be ordered by nonsense suppression: ≤ 0.026 for the first, ≤ 0.026 for the second.

C1U C5U A14G A89U and C1U G10A U17G G78A cannot be ordered by nonsense suppression: ≤ 0.026 for the first, ≤ 0.026 for the second.

C1G G18U G73A and C1U A24C G32C C34G cannot be ordered by nonsense suppression: ≤ 0.026 for the first, ≤ 0.026 for the second.

C1G G19U G28U G61U G78A and C1G C5G U70C cannot be ordered by nonsense suppression: ≤ 0.026 for the first, ≤ 0.026 for the second.

C1U A54U U55C and C1G C34U U55A G67A cannot be ordered by nonsense suppression: ≤ 0.026 for the first, ≤ 0.026 for the second.

U2A C11G C27U U35A and C1U C11G C12A A33G G69U G73C cannot be ordered by nonsense suppression: ≤ 0.026 for the first, ≤ 0.026 for the second.

C1U G69C U76G and C1G G6C G66A U70G cannot be ordered by nonsense suppression: ≤ 0.026 for the first, ≤ 0.026 for the second.

C1U G18C G32U C77G and C1U U16C U58G C83A G84A cannot be ordered by nonsense suppression: ≤ 0.026 for the first, ≤ 0.026 for the second.

U2A A14U A30U C34G C81A and C1U C56G C80A cannot be ordered by nonsense suppression: ≤ 0.026 for the first, ≤ 0.026 for the second.

C1U U76C and C1U C11G C64G G69U C77G cannot be ordered by nonsense suppression: ≤ 0.026 for the first, ≤ 0.026 for the second.

C1U G7C G69C G85C and C1U U17A C56A G65A C75A cannot be ordered by nonsense suppression: ≤ 0.026 for the first, ≤ 0.026 for the second.

C1U A9U A24C A30U A33G and C1G G26A A33U C64U U70C cannot be ordered by nonsense suppression: ≤ 0.026 for the first, ≤ 0.026 for the second.

C1G U22C G84C and C1U U16A G25C C83G cannot be ordered by nonsense suppression: ≤ 0.026 for the first, ≤ 0.026 for the second.

C1U C3A U22C C72G A89C and C1G C81A cannot be ordered by nonsense suppression: ≤ 0.026 for the first, ≤ 0.026 for the second.

C1U A24C U55G G66C C77U G85U and C1G G18U G67C cannot be ordered by nonsense suppression: ≤ 0.026 for the first, ≤ 0.026 for the second.

C1U U4C A62U G88U and C1U U8A A9G G15C G86U G88C cannot be ordered by nonsense suppression: ≤ 0.026 for the first, ≤ 0.026 for the second.

U2A A9C and C1G C34U cannot be ordered by nonsense suppression: ≤ 0.026 for the first, ≤ 0.026 for the second.

U2A A24G G25A and C1U U20G A31G C81G cannot be ordered by nonsense suppression: ≤ 0.026 for the first, ≤ 0.026 for the second.

C1U G69C and C1G U16C cannot be ordered by nonsense suppression: ≤ 0.026 for the first, ≤ 0.026 for the second.

C1U C72G and C1U G18A A31U U70C G86A cannot be ordered by nonsense suppression: ≤ 0.026 for the first, ≤ 0.026 for the second.

C1U U58G A87U A89G and C1U G69C G73C G86U cannot be ordered by nonsense suppression: ≤ 0.026 for the first, ≤ 0.026 for the second.

With C1U A60G the nonsense suppression was ≤ 0.026.
